# Experimental data reported in PubChem BioAssay AID686978 (National Center for Advancing Translational Sciences (NCATS), 2013).
# Out of some 420,000 compounds screened, about 64,000 (15%) were called active. Inconclusive means that the source gave no clear call. Such entries were picked first, then a sample of the others. Calls come from the whole dose curve; as a rule, active = well fitted inhibition curve with a large enough effect; inconclusive = small, poorly fitted or top-dose-only effect; inactive = flat fitted curve, though single readings scatter. Potencies of inconclusive entries are left out as doubtful fits.
# Assay: qHTS for Inhibitors of human tyrosyl-DNA phosphodiesterase 1 (TDP1): qHTS in cells in absence of CPT; note: nearly all actives have a fitted effect of over 55% in size
# Settings: DT40 Tdp1-/- hTDP1 cells, no CPT, ATP luminescence, 48 h; activity change, negative = growth inhibition: at 46.2 µM (top of the series) unless noted
# Method in brief: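 Compound effects on proliferation are scored in DT40 Tdp1-/-;hTDP1 cells in the absence of CPT. ATP levels (CellTiter-Glo luminescence) are recorded after a ≥48 hr, 37 °C incubation.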
# % is set by controls: 0 for no effect and ±100 for the full control effect; potency is the fitted concentration of half-maximal effect; tags give direction and shape of the fitted curve.
SMILES,Potency,"activity change, negative = growth inhibition"
C(=C\c1ccccc1)/CN1CCN(C(c2ccnc3ccccc23)c2nnnn2C2CCCCC2)CC1 (centres undefined),active: 18.4 µM,–
COCCN=c1scc(-c2cc(OC)c(OC)c(OC)c2)n1/N=C/c1c(C)[nH]c2ccccc12,active: 18.4 µM,–
CCc1ccc(NC(=O)CSc2nnc(-c3ccc(N)cc3)n2C)cc1,"inconclusive [inhibitor, single point]",–
C/C(=N\Nc1ccc(C(=O)c2c(C)cc3ccccn23)cc1[N+](=O)[O-])c1ccc(O)cc1,"inconclusive [inhibitor, single point]",–
CCOc1cc(CNC(=O)NC2COc3ccccc3C2)cc(OCC)c1OCC (centres undefined),"inconclusive [inhibitor, single point]",–
CCCSc1nc(-c2ccccc2)cc(C(F)(F)F)c1C#N,"inconclusive [inhibitor, single point]",–
COc1ccc(OC)c(-c2csc(-c3c(N)c(C(=O)c4ccc(Cl)cc4)n4ccccc34)n2)c1,inactive,–
C[C@@H]1CN(Cc2ccc3c(c2)CN(Cc2nc(-c4ccccc4)cs2)CCO3)C[C@H](C)O1,active: 23.1 µM,–
COC(=O)/C=C/c1cc(F)ccc1S(=O)(=O)Nc1ccccc1,"inconclusive [inhibitor, single point]",–
COc1ccc(NC(=O)C2(C)CCN2Cc2ccc(SC)cc2)cc1OC (centres undefined),"inconclusive [inhibitor, single point]",–
O=C1c2cc([N+](=O)[O-])ccc2-c2ncccc21,–,inconclusive: -37% [inhibitor]
Cc1cc(C)c(C)c(S(=O)(=O)N2CCN(c3ncnc4sc(C)c(C)c34)CC2)c1C,"inconclusive [inhibitor, full curve, poor fit]",–
O=c1oc2ccccc2c(O)c1C=NCc1ccccn1,inactive,–
O=C(COc1ccccc1[N+](=O)[O-])N1CCCc2ccccc21,"inconclusive [inhibitor, partial curve]",–
O=C1CCC([N+](=O)[O-])C(c2cc(Br)ccc2F)N1 (centres undefined),inactive,–
Cc1cc(C)c(C(=O)/C=C/c2cccc3ccccc23)c(=O)[nH]1,active: 9.2 µM,–
COc1ccc2c(c1)CCC1C2=NN(/C(C)=C\C(C)=O)C1c1ccc(F)cc1 (centres undefined),"inconclusive [inhibitor, single point]",–
Cc1ccc(S(=O)(=O)NCc2cc(=O)n(C)c(=O)n2C)cc1C,inactive,–
CC(C)CCNC(=O)c1onc(CSc2ccncc2)c1C(=O)NCCC(C)C,"inconclusive [inhibitor, single point]",–
CCOC(=O)N1CCC(NC(=O)c2cn(-c3ccc(OC)cc3)c(=O)c3ccccc23)CC1,"inconclusive [inhibitor, single point]",–
O=C(NCC1CCCO1)c1ccc2c(=O)n(Cc3ccc(Cl)cc3)c(=S)[nH]c2c1 (centres undefined),"inconclusive [inhibitor, single point]",–
Cc1cc(OCC(=O)N(Cc2ccc(N(C)C)cc2)C2CCS(=O)(=O)C2)cc(C)c1Cl (centres undefined),active: 18.4 µM,–

SMILES,Potency,"activity change, negative = growth inhibition"
CCCCc1ccc(NC(=O)C2CCN(S(C)(=O)=O)CC2)cc1,"inconclusive [inhibitor, partial curve, poor fit]",–
CN(Cc1ccccc1)C(=O)COC(=O)C1CCN(S(=O)(=O)c2ccc(Cl)c(C(F)(F)F)c2)CC1,"inconclusive [inhibitor, single point]",–
O=C(Nc1nnc(Cc2ccccc2F)s1)c1ccccc1Cl,"inconclusive [inhibitor, single point]",–
CC(C)Oc1ccc(CN2CCCC(CO)(Cc3ccc(F)cc3)C2)cc1 (centres undefined),"inconclusive [inhibitor, single point]",–
CC(C)(Cc1ccccc1)/[N+]([O-])=C\c1ccccc1,"inconclusive [inhibitor, single point]",–
O=C(c1ccc(S(=O)(=O)Cc2ccccc2F)c([N+](=O)[O-])c1)N1CCCC1,"inconclusive [inhibitor, single point]",–
Cc1cc(C(=O)CSc2nc(N)cc(N)n2)c(C)n1-c1cccc(C(F)(F)F)c1,"inconclusive [inhibitor, single point]",–
COc1cc(C(=O)NCCc2csc3nc(-c4ccccc4C)nn23)cc(OC)c1OC,"inconclusive [inhibitor, full curve, poor fit]",–
CCOc1ncccc1C(=O)OCC(=O)c1ccc(Br)s1,active: 4.61 µM,–
COc1ccc(C2CC3(CC(C)(C)NC(SC)=N3)Oc3cc(O)cc(C)c32)cc1 (centres undefined),active: 5.17 µM,–
CC(Oc1ccc(-n2cnnn2)cc1)C(=O)O (centres undefined),inactive,–
CC(=O)c1ccc(NC(=O)C2(c3ccccc3)CC2(Cl)Cl)cc1 (centres undefined),"inconclusive [inhibitor, single point]",–
COc1cc(C(=O)Nc2c(C(=O)O)[nH]c3ccc(C)cc23)cc(OC)c1OC,inactive,–
COc1ccc(C(=S)N(C)C)cc1OC,"inconclusive [inhibitor, single point]",–
CCCCCc1ccc(-c2cn(Cc3ccc4c(c3)C(=O)c3ccccc3C4=O)nn2)cc1,inactive,–
Cc1ccc(Cl)cc1NC(=O)CN1C(=O)COc2ccc(S(=O)(=O)N3CCCCCC3)cc21,"inconclusive [inhibitor, single point]",–
COC(=O)c1c(N)nc(C)n1-c1ccc(OC)cc1,inactive,–
COc1cc(-c2ccc(C)cc2)cc2c1OCCN(C(=O)CCn1ccc(C)n1)C2,"inconclusive [inhibitor, single point]",–
CCN1CCN(S(=O)(=O)c2ccc(Cl)c(C(=O)Nc3cc(Cl)ccc3N3CCOCC3)c2)CC1,"inconclusive [inhibitor, single point]",–
O=C(/C=C/Sc1ccc(C(F)(F)F)cn1)c1ccccc1,active: 2.31 µM,–
O=C(NCc1ccc(Cl)c(Cl)c1)c1ccco1,"inconclusive [inhibitor, single point]",–
COc1ccccc1OCCC(=O)N1CCN(c2ccccc2OC)CC1,"inconclusive [inhibitor, single point]",–
